Measurements published in patent publication US10299477B2 (priority 2015, dated 2019).

Tested on: Phytophthora infestans
Format: in vivo
Conditions: Late blight on tomato; 250 ppm spray, 2.5 ml/pot; evaluated 5-10 days after inoculation

CCn1c(-c2c(F)cc(F)cc2F)c(-c2ccccc2)ccc1=O [Compound 762]
Test F (control value class): H (H shows more than 50% of control values)

CCn1c(-c2c(F)cc(OC)cc2F)c(-c2ccccc2)ccc1=O [Compound 763]
Test F (control value class): H (H shows more than 50% of control values)

COc1cc(F)c(-c2c(-c3ccc(OC)cc3Cl)ccc(=O)n2C)c(F)c1 [Compound 765]
Test F (control value class): L (L shows 50% or less of control values)

COc1ccc(-c2cc(Cl)c(=O)n(C)c2-c2c(F)cc(F)cc2F)c(Cl)c1 [Compound 766]
Test F (control value class): L (L shows 50% or less of control values)

COc1ccc(-c2cc(Br)c(=O)n(C)c2-c2c(F)cc(F)cc2F)c(Cl)c1 [Compound 767]
Test F (control value class): L (L shows 50% or less of control values)

CCn1c(-c2c(F)cc(F)cc2F)c(-c2cc(OC)ccc2Cl)cc(Br)c1=O [Compound 768]
Test F (control value class): L (L shows 50% or less of control values)

CCn1c(-c2c(F)cc(F)cc2F)c(-c2cc(OC)ccc2Cl)cc(C)c1=O [Compound 769]
Test F (control value class): L (L shows 50% or less of control values)

CCn1c(-c2c(F)cc(OC)cc2F)c(-c2cc(OC)ccc2Cl)ccc1=O [Compound 770]
Test F (control value class): L (L shows 50% or less of control values)

CCn1c(-c2c(F)cc(OC)cc2F)c(-c2cc(OC)ccc2Cl)cc(C)c1=O [Compound 771]
Test F (control value class): L (L shows 50% or less of control values)

CCn1c(-c2c(F)cc(OC)cc2F)c(-c2cc(OC)ccc2Cl)cc(Cl)c1=O [Compound 772]
Test F (control value class): H (H shows more than 50% of control values)

CCn1c(-c2c(F)cc(OC)cc2F)c(-c2ccccc2)cc(Cl)c1=O [Compound 773]
Test F (control value class): L (L shows 50% or less of control values)

CCn1c(-c2c(F)cc(F)cc2F)c(-c2ccccc2)cc(Br)c1=O [Compound 774]
Test F (control value class): L (L shows 50% or less of control values)

CCn1c(-c2c(F)cc(OC)cc2F)c(-c2ccccc2)cc(Br)c1=O [Compound 775]
Test F (control value class): L (L shows 50% or less of control values)

COc1cc(F)c(-c2c(-c3ccc(OC)cc3Cl)cc(Cl)c(=O)n2C)c(F)c1 [Compound 776]
Test F (control value class): L (L shows 50% or less of control values)

Cn1c(-c2c(F)cc(F)cc2F)c(-c2ccccc2)ccc1=O [Compound 777]
Test F (control value class): L (L shows 50% or less of control values)

COc1cc(F)c(-c2c(-c3ccccc3)ccc(=O)n2C)c(F)c1 [Compound 778]
Test F (control value class): L (L shows 50% or less of control values)

Cn1c(-c2c(F)cc(F)cc2F)c(-c2ccccc2)cc(Cl)c1=O [Compound 779]
Test F (control value class): L (L shows 50% or less of control values)

Cn1c(-c2c(F)cc(F)cc2F)c(-c2ccccc2)cc(Br)c1=O [Compound 780]
Test F (control value class): L (L shows 50% or less of control values)

COc1cc(F)c(-c2c(-c3ccccc3)cc(Cl)c(=O)n2C)c(F)c1 [Compound 781]
Test F (control value class): L (L shows 50% or less of control values)

COc1cc(F)c(-c2c(-c3ccccc3)cc(Br)c(=O)n2C)c(F)c1 [Compound 782]
Test F (control value class): L (L shows 50% or less of control values)

CCn1c(-c2c(F)cccc2F)c(-c2cccc(OC)c2Cl)cc(Cl)c1=O [Compound 783]
Test F (control value class): L (L shows 50% or less of control values)

COc1cccc(-c2ccc(=O)n(C)c2-c2c(F)cccc2F)c1Cl [Compound 784]
Test F (control value class): L (L shows 50% or less of control values)

COc1cccc(-c2cc(Cl)c(=O)n(C)c2-c2c(F)cccc2F)c1Cl [Compound 785]
Test F (control value class): H (H shows more than 50% of control values)

COc1cccc(-c2cc(Br)c(=O)n(C)c2-c2c(F)cccc2F)c1Cl [Compound 786]
Test F (control value class): H (H shows more than 50% of control values)

COc1cccc(-c2cc(Cl)c(=O)n(C)c2-c2c(F)cc(F)cc2F)c1Cl [Compound 787]
Test F (control value class): L (L shows 50% or less of control values)
